Assay results as given in the RNAGym collection of RNA variant scans (doi:10.7554/elife.90254).
The source gives no read counts; variants with many changes may rest on few reads.

B1: OR4K15 (parent)
chain: GUUAACGGUCAUAGGCCAUGGAAACUAGGAGCACCAUUUCGCUGCCAGUGAAGAAAUGAACAAAGAAAAUCUGGGCCAGGCAGGCAUCAAAAGAAAUAGUCUUGCGCUCAACCAGAAAGUCUGUAAUCAUUUUAAGGGUA

Variants of: B1
Test: self-cleavage, relative activity (ratio to wild type); higher = more cleavage; in vitro, sequencing; the parent is a self-cleaving ribozyme
U2C A18U A60U A116U gave a self-cleavage of 0.51. A62U U87C A117G showed a self-cleavage of 1.8. In the case of A60G A68G A82U, the self-cleavage is reported as 0.13. A56G A64G A94G A96G gave a self-cleavage of 0.51. In the case of A56G A116G U133C, the self-cleavage is reported as 0.95. Work on A27U A33G A36G yielded a self-cleavage of 1.66. For U19A A111U U122C, the self-cleavage was 0. For A30G A67G U100C U108A, the self-cleavage was 0.02. Variant G75C A94G A111G has a self-cleavage of 0.01. For A63U A67G A91G U97C U122C, the self-cleavage was 0.27. For C16G A55G A135G G137A, the self-cleavage was 1.18. U57C A67G A78G gave a self-cleavage of 0.42. For A30G C101U U103C, the self-cleavage was 0.15. A51G A89G U122C gave a self-cleavage of 0.42. Work on U38A U39A A89U yielded a self-cleavage of 1.85. For A82U A91U U122G, the self-cleavage was 0.36. For A62G U108A A114U, the self-cleavage was 0.01. A54G A62G A96G showed a self-cleavage of 0.9. A33G A52G A68G A92U gave a self-cleavage of 1.37. With A68C U70C U87C the self-cleavage was 0.73. A11G A91G A111U showed a self-cleavage of 0.07. A24G A56G U72A U103C A116G U127A showed a self-cleavage of 0.04. A4G U43A A91G U103C A110G U130C gave a self-cleavage of 0.02. Work on U3C U39C G48A U49A A52G yielded a self-cleavage of 1.27. With A64G A67G A94G A116U A135U the self-cleavage was 0.3. For U19C U26C A114U, the self-cleavage was 0.13. For A30G U49C A86C A129G, the self-cleavage was 0.18. Variant A18G A27G A68G A82G A110G has a self-cleavage of 0. C17U A55G C85U U103C gave a self-cleavage of 0.22. With A4G A23G U43C A96U the self-cleavage was 1.33. With A56U A60U U87A A90G U108A the self-cleavage was 0.01. A55G A66U A92G showed a self-cleavage of 0.42. For A13U A36C A59G A118U, the self-cleavage was 0.45. Work on A78U A95G U122A yielded a self-cleavage of 0.33. A78G A82G A117G showed a self-cleavage of 0.11. Variant A67U G73A U122C has a self-cleavage of 0.05. U37C U38C U87C gave a self-cleavage of 1.8. In the case of A62U U87A A94G, the self-cleavage is reported as 1.6. Work on A18G U49C A64G U108C yielded a self-cleavage of 0.02. Work on A11U U39A U103C yielded a self-cleavage of 1.39. Work on C40U U70C A91G U97C yielded a self-cleavage of 0.53. A24U A47G A78U A96G showed a self-cleavage of 0.27. Variant A18U U43C A68C has a self-cleavage of 1.9. A59G A62U U72A U102A showed a self-cleavage of 0.08. For A18C A59G G84A U108A U120C, the self-cleavage was 0.04. In the case of A30G A59U A69G, the self-cleavage is reported as 1.29. Work on A33G C71A U127C yielded a self-cleavage of 0.03. A13G A56G U108C gave a self-cleavage of 0.07. With U19A A66U A92G the self-cleavage was 1.45. A11G U49C A63G A64G U108C showed a self-cleavage of 0.01. Work on A92U U108C U120C A129G yielded a self-cleavage of 0. For A54G A91G A111U G123A A126G, the self-cleavage was 0.02. In the case of A13G A63G A68G A111G, the self-cleavage is reported as 0.11. U12A A23G A33G A54G A116G U131C showed a self-cleavage of 0.29. With A30G G41A U70C A82U the self-cleavage was 0.37. Variant U100C U102C U132C A140G has a self-cleavage of 0.86. With U108C A114G A116U the self-cleavage was 0. Variant G8U A24G A125G has a self-cleavage of 0.47. Work on A4U U102C A117U yielded a self-cleavage of 1.05. Work on G41A A118U U124C yielded a self-cleavage of 0.23. Work on A56G A62G U87C yielded a self-cleavage of 1.08. Work on A5U A51G A62G A68U G73U yielded a self-cleavage of 0.29. Variant A64G A69G G137A has a self-cleavage of 0.8. Work on U3C C42U A56G A78U A86U A96G A110U yielded a self-cleavage of 0.09. U2C A33G A51G A52U A56G A118G showed a self-cleavage of 0.4. In the case of A11G A27G U120C, the self-cleavage is reported as 0. Work on G7A A30G C46U yielded a self-cleavage of 1.26. In the case of A30G A69G A86G A98C A114C, the self-cleavage is reported as 0.07. With A47U A55G U108A the self-cleavage was 0.02. Work on A5G A30G A67G U87C U97C A140U yielded a self-cleavage of 0.95. Work on A51U A78C A118G U127G yielded a self-cleavage of 0. In the case of A47U A63G A89G, the self-cleavage is reported as 0.68. For A52G U87A U108C, the self-cleavage was 0.01. In the case of A22G U102A A114G, the self-cleavage is reported as 0.12. U9A A27C A52U U87C A117G showed a self-cleavage of 1.5. G14A U39C A47U gave a self-cleavage of 0.78. A18G A30U U87A A98U A126G gave a self-cleavage of 1.01. Variant U2C U127A U130C has a self-cleavage of 1.47. With A30G U39A A116G A117G the self-cleavage was 1.14. Variant A24G A36C A51U A56G has a self-cleavage of 1.52. In the case of A54G A64U U103C, the self-cleavage is reported as 0.57. A18G A22G A36G U139C gave a self-cleavage of 0.75. For A36G A95G U130C, the self-cleavage was 2.09. For U19C A62G U72C, the self-cleavage was 0.12. A47C A56G A94G A110G A116G showed a self-cleavage of 0.05. Work on A5U A27U U57C C77A yielded a self-cleavage of 1.14. With A23C G28A C85U U87C C121A U130C the self-cleavage was 0.4. For U38C U39A A82U, the self-cleavage was 0.18. In the case of U43A A56G A67G A114U, the self-cleavage is reported as 0.09. For A11G A23G A82G A96G A129U, the self-cleavage was 0.46. U26C G75C U130C showed a self-cleavage of 0.08. For G29A A82U U87C A95G U102A, the self-cleavage was 0.8. A27U U102A G138A gave a self-cleavage of 0.63. Variant A11G A78C A90G has a self-cleavage of 0.25. Variant A23G A47G A52G A55G A59G A62G has a self-cleavage of 0.67. Variant A24G A33G A36G A68G has a self-cleavage of 0.79. Work on A5U A23U A96G yielded a self-cleavage of 1.08. A11G A82U G83U gave a self-cleavage of 0.35. In the case of A11U A66U A78G, the self-cleavage is reported as 0.23. Variant A23U U49C A60G has a self-cleavage of 1.03. Variant A47G A91G U102C U124A has a self-cleavage of 0.51. A5G U43C A51G A92G showed a self-cleavage of 1.02. Variant A63G A98G A140U has a self-cleavage of 1.17. A63G U70C C77A A78G A91G U131C gave a self-cleavage of 0.3. A54G C61U A68G G75C U102C showed a self-cleavage of 0.14. Variant A23U A69U A82G has a self-cleavage of 0.36. Variant C61U A90G U130C has a self-cleavage of 0.9. With U108C A110G G136A the self-cleavage was 0.01. For A56G U102C A111G U130C, the self-cleavage was 0.01. Work on A52G A56G A68G A90G U103C U131C yielded a self-cleavage of 0.46. With A55G U87A A96G A129G the self-cleavage was 0.8. Work on U26G A86G A96G U100A A118G yielded a self-cleavage of 0.31. With A110G A117U U120C the self-cleavage was 0.03. With A55G A89G U102C the self-cleavage was 0.53. With A11G A23G A60G the self-cleavage was 1.03. Variant A11G A89G U103A U127A A140U has a self-cleavage of 0.74. In the case of U38A A94G A135G, the self-cleavage is reported as 1.18. With A13G G50A A51G A54G the self-cleavage was 0.75. Variant A18G U103C A117G has a self-cleavage of 0.6. For A33G A89U U102C A140U, the self-cleavage was 2.29. In the case of U9C U37C A96U C105G, the self-cleavage is reported as 0.04. For A24G A33G A67U, the self-cleavage was 1.17. A27G A51G A89G A92C showed a self-cleavage of 1.37. Work on A13G A66G A86G A89G U108A yielded a self-cleavage of 0.02. For A23G A27G U38C A78G U131C, the self-cleavage was 0.06. For A64G A110C A135G, the self-cleavage was 0.18. For C42A A63U U97A, the self-cleavage was 1.33. With A60G A96G A114G the self-cleavage was 0.4. A67G A96G U97C gave a self-cleavage of 0.16. With U9C U38C C85U A110C U132G the self-cleavage was 0.36. For U2C U3A A60U, the self-cleavage was 0.75. G41A A59U U87A U100C A140G gave a self-cleavage of 1.91. For U19C A27G A98G A129U, the self-cleavage was 0.17. In the case of U9C U19C U43C G79A A89G, the self-cleavage is reported as 0.13. For U2C U39A A82G A134G, the self-cleavage was 0.29. A13G U57C A89G A90G A116U U131G showed a self-cleavage of 0. U19C U38C U57A showed a self-cleavage of 1.5. A56G A63G A94G gave a self-cleavage of 1.1. U19C A51G A96U U102C showed a self-cleavage of 2.83. In the case of A22G U37C A52G A114U A117G A129G, the self-cleavage is reported as 0.01. For U37C A59U A60G A96G A110G U133C, the self-cleavage was 0.11. For G8A A30G A51G U72C U127C, the self-cleavage was 0.26. In the case of U3C A18U A47G A91U U122C, the self-cleavage is reported as 1.78. For A51U U97A A98G, the self-cleavage was 1.69. For U38C A51G U102A U127C, the self-cleavage was 0.41. A27G U38C A59G showed a self-cleavage of 1.73. U43C A54G A114G U133C gave a self-cleavage of 0.89. For A30G U39C A91G, the self-cleavage was 1.06. Work on U9G U37C U49G A55G yielded a self-cleavage of 0.79. For A55G A56G A140G, the self-cleavage was 0.91. With A111G A116G A125U the self-cleavage was 0.01. With C32U A59G C109U the self-cleavage was 0.52. In the case of A27G A33G A94G, the self-cleavage is reported as 1.22. With A89U A134G A135G the self-cleavage was 1.17. A24G U39C U57C gave a self-cleavage of 0.97. For U26C U70A U130C, the self-cleavage was 0.63. With A18G A82U U108C the self-cleavage was 0.03. In the case of U9A A86U U100C U120C, the self-cleavage is reported as 1.85. In the case of A63G A82G A96C, the self-cleavage is reported as 0.28. For A96G U97C A117G, the self-cleavage was 1.06. G41A A55G A96G U120C U127C showed a self-cleavage of 0.55. With A36U U122A A135G the self-cleavage was 1.38. Variant A62U U70A A117G has a self-cleavage of 0.86. In the case of A52G U57C U133C, the self-cleavage is reported as 0.96. With C35U A82G A114U the self-cleavage was 0.02. U9C C16U A60G A63G gave a self-cleavage of 0.73. For A94G U103C U108C, the self-cleavage was 0.03.
